Experimental data reported in the supplement of paper PMC8728848.
Some of the results follow.

Assays:
Experiment in all cases: glycan array binding signal (z-score within array); higher = stronger binding
Conditions in all cases: glycan notation: IUPAC condensed, linker removed
[1] = target: Neu5Ac(a2-6)Gal(b1-4)GlcNAc(b1-2)Man(a1-3)[Man(a1-6)]Man(b1-4)GlcNAc(b1-4)GlcNAc
Outline: (§1)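 Glycan array data came from 3228 arrays in the Consortium for Functional Glycomics database, and only arrays with an available protein sequence were kept. Glycan names were put into IUPAC-condensed notation, and columns mapping to the same glycan were averaged. The binding signal is a within-array Z-score, averaged across arrays of one protein sequence run at different concentrations or buffers and across linkers. A negative Z-score can be read as non-binding.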

[2] = target: Neu5Ac(a2-6)Gal(b1-4)GlcNAc(b1-2)Man(a1-3)[Neu5Ac(a2-3)Gal(b1-4)GlcNAc(b1-2)Man(a1-6)]Man(b1-4)GlcNAc(b1-4)GlcNAc
Outline: as §1

[3] = target: Neu5Ac(a2-6)Gal(b1-4)GlcNAc(b1-2)Man(a1-3)[Neu5Ac(a2-6)Gal(b1-4)GlcNAc(b1-2)Man(a1-6)]Man(b1-4)GlcNAc(b1-4)GlcNAc
Outline: as §1

[4] = target: Neu5Ac(a2-6)Gal(b1-4)GlcNAc(b1-2)Man(a1-3)[Neu5Ac(a2-6)Gal(b1-4)GlcNAc(b1-2)Man(a1-6)]Man(b1-4)GlcNAc(b1-4)[Fuc(a1-6)]GlcNAc
Outline: as §1

[5] = target: Neu5Ac(a2-6)Gal(b1-4)GlcNAc(b1-2)Man(a1-6)Man(b1-4)GlcNAc(b1-4)GlcNAc
Outline: as §1

[6] = target: Neu5Ac(a2-6)Gal(b1-4)GlcNAc(b1-2)Man(a1-6)[Gal(b1-4)GlcNAc(b1-2)Man(a1-3)]Man(b1-4)GlcNAc(b1-4)GlcNAc
Outline: as §1

[7] = target: Neu5Ac(a2-6)Gal(b1-4)GlcNAc(b1-2)Man(a1-6)[GlcNAc(b1-2)Man(a1-3)]Man(b1-4)GlcNAc(b1-4)GlcNAc
Outline: as §1

[8] = target: Neu5Ac(a2-6)Gal(b1-4)GlcNAc(b1-2)Man(a1-6)[Man(a1-3)]Man(b1-4)GlcNAc(b1-4)GlcNAc
Outline: as §1

[9] = target: Neu5Ac(a2-6)Gal(b1-4)GlcNAc(b1-2)[Neu5Ac(a2-6)Gal(b1-4)GlcNAc(b1-4)]Man(a1-3)[GlcNAc(b1-4)][Neu5Ac(a2-6)Gal(b1-4)GlcNAc(b1-2)[Neu5Ac(a2-6)Gal(b1-4)GlcNAc(b1-6)]Man(a1-6)]Man(b1-4)GlcNAc(b1-4)GlcNAc
Outline: as §1

[10] = target: Neu5Ac(a2-6)Gal(b1-4)GlcNAc(b1-2)[Neu5Ac(a2-6)Gal(b1-4)GlcNAc(b1-4)]Man(a1-3)[GlcNAc(b1-4)][Neu5Ac(a2-6)Gal(b1-4)GlcNAc(b1-4)Man(a1-6)]Man(b1-4)GlcNAc(b1-4)GlcNAc
Outline: as §1

[11] = target: Neu5Ac(a2-6)Gal(b1-4)GlcNAc(b1-2)[Neu5Ac(a2-6)Gal(b1-4)GlcNAc(b1-6)]Man(a1-6)[Neu5Ac(a2-6)Gal(b1-4)GlcNAc(b1-2)Man(a1-3)][GlcNAc(b1-4)]Man(b1-4)GlcNAc(b1-4)GlcNAc
Outline: as §1

[12] = target: Neu5Ac(a2-6)Gal(b1-4)GlcNAc(b1-3)Gal(b1-3)GlcNAc
Outline: as §1

[13] = target: Neu5Ac(a2-6)Gal(b1-4)GlcNAc(b1-3)Gal(b1-4)GlcNAc
Outline: as §1

[14] = target: Neu5Ac(a2-6)Gal(b1-4)GlcNAc(b1-3)Gal(b1-4)GlcNAc(b1-2)Man(a1-3)[Neu5Ac(a2-6)Gal(b1-4)GlcNAc(b1-3)Gal(b1-4)GlcNAc(b1-2)Man(a1-6)]GalNAc
Outline: as §1

[15] = target: Neu5Ac(a2-6)Gal(b1-4)GlcNAc(b1-3)Gal(b1-4)GlcNAc(b1-3)Gal(b1-4)GlcNAc
Outline: as §1

[16] = target: Neu5Ac(a2-6)Gal(b1-4)GlcNAc(b1-3)Gal(b1-4)GlcNAc(b1-3)Gal(b1-4)GlcNAc(b1-2)Man(a1-3)[Neu5Ac(a2-6)Gal(b1-4)GlcNAc(b1-3)Gal(b1-4)GlcNAc(b1-3)Gal(b1-4)GlcNAc(b1-2)Man(a1-6)]GalNAc
Outline: as §1

[17] = target: Neu5Ac(a2-6)Gal(b1-4)GlcNAc(b1-3)Gal(b1-4)GlcNAc(b1-3)GalNAc
Outline: as §1

[18] = target: Neu5Ac(a2-6)Gal(b1-4)GlcNAc(b1-3)Gal(b1-4)GlcNAc(b1-3)[Neu5Ac(a2-6)Gal(b1-4)GlcNAc(b1-3)Gal(b1-4)GlcNAc(b1-6)]GalNAc
Outline: as §1

[19] = target: Neu5Ac(a2-6)Gal(b1-4)GlcNAc(b1-3)Gal(b1-4)GlcNAc(b1-6)[Gal(b1-3)]GalNAc
Outline: as §1

[20] = target: Neu5Ac(a2-6)Gal(b1-4)GlcNAc(b1-3)Gal(b1-4)[Fuc(a1-3)]GlcNAc(b1-3)Gal(b1-4)[Fuc(a1-3)]GlcNAc
Outline: as §1

[21] = target: Neu5Ac(a2-6)Gal(b1-4)GlcNAc(b1-3)GalNAc
Outline: as §1

[22] = target: Neu5Ac(a2-6)Gal(b1-4)GlcNAc(b1-3)[Neu5Ac(a2-6)Gal(b1-4)GlcNAc(b1-6)]GalNAc
Outline: as §1

[23] = target: Neu5Ac(a2-6)Gal(b1-4)GlcNAc(b1-6)GalNAc
Outline: as §1

[24] = target: Neu5Ac(a2-6)Gal(b1-4)GlcNAc(b1-6)[Gal(b1-3)GlcNAc(b1-3)]Gal(b1-4)Glc
Outline: as §1

[25] = target: Neu5Ac(a2-6)Gal(b1-4)GlcNAc(b1-6)[Gal(b1-3)]GalNAc
Outline: as §1

[26] = target: Neu5Ac(a2-6)Gal(b1-4)GlcNAc6S
Outline: as §1

Neu5Ac(a2-6)GalNAc = target: Neu5Ac(a2-6)GalNAc
Outline: as §1

[27] = target: Neu5Ac(a2-6)GalNAc(b1-4)GlcNAc
Outline: as §1

[28] = target: Neu5Ac(a2-6)GalNAc(b1-4)GlcNAc6S
Outline: as §1

[29] = target: Neu5Ac(a2-6)GlcNAc(b1-4)GlcNAc
Outline: as §1

[30] = target: Neu5Ac(a2-6)GlcNAc(b1-4)GlcNAc(b1-4)GlcNAc
Outline: as §1

B1: Thrombomodulin (Mus musculus) (protein)
chain: ALAKLQPTGSQCVEHECFALFQGPATFLDASQACQRLQGHLMTVRSSVAADVISLLLSQSSMDLGPWIGLQLPQGCDDPVHLGPLRGFQWVTGDNHTSYSRWARPNDQTAPLCGPLCVTVSTATEAAPGEPAWEEKPCETETQGFLCEFYFTASC
Q: For B1, which “glycan array binding signal (z-score)” value [1] is on record?
A: 0.007

Q: What about the “glycan array binding signal (z-score)” value [2] of the same binder?
A: 0.176

Q: And the “glycan array binding signal (z-score)” value [3]?
A: -0.025

Q: What about the “glycan array binding signal (z-score)” value [4] of the same binder?
A: 0.467

Q: And the “glycan array binding signal (z-score)” value [5]?
A: -0.321

Q: And the “glycan array binding signal (z-score)” value [6]?
A: -0.119

Q: What about the “glycan array binding signal (z-score)” value [7] of the same binder?
A: 0.052

Q: And the “glycan array binding signal (z-score)” value [8]?
A: 0.066

Q: What about the “glycan array binding signal (z-score)” value [9] of the same binder?
A: -0.168

Q: What about the “glycan array binding signal (z-score)” value [10] of the same binder?
A: 0.333

Q: What about the “glycan array binding signal (z-score)” value [11] of the same binder?
A: -0.326

Q: What about the “glycan array binding signal (z-score)” value [12] of the same binder?
A: -0.141

Q: What about the “glycan array binding signal (z-score)” value [13] of the same binder?
A: -0.376

Q: And the “glycan array binding signal (z-score)” value [14]?
A: -0.223

Q: What about the “glycan array binding signal (z-score)” value [15] of the same binder?
A: -0.258

Q: And the “glycan array binding signal (z-score)” value [16]?
A: 0.107

Q: And the “glycan array binding signal (z-score)” value [17]?
A: -0.161

Q: What about the “glycan array binding signal (z-score)” value [18] of the same binder?
A: -0.041

Q: What about the “glycan array binding signal (z-score)” value [19] of the same binder?
A: -0.257

Q: What about the “glycan array binding signal (z-score)” value [20] of the same binder?
A: -0.352

Q: And the “glycan array binding signal (z-score)” value [21]?
A: -0.35

Q: And the “glycan array binding signal (z-score)” value [22]?
A: -0.137

Q: And the “glycan array binding signal (z-score)” value [23]?
A: -0.181

Q: And the “glycan array binding signal (z-score)” value [24]?
A: -0.156

Q: What about the “glycan array binding signal (z-score)” value [25] of the same binder?
A: -0.336

Q: And the “glycan array binding signal (z-score)” value [26]?
A: -0.551

Q: And the “glycan array binding signal (z-score)” value (Neu5Ac(a2-6)GalNAc)?
A: -0.171

Q: And the “glycan array binding signal (z-score)” value [27]?
A: -0.193

Q: And the “glycan array binding signal (z-score)” value [28]?
A: 0.316

Q: What about the “glycan array binding signal (z-score)” value [29] of the same binder?
A: -0.205

Q: And the “glycan array binding signal (z-score)” value [30]?
A: -0.115
